According to patent US20260167737A1 (BIGHAT BIOSCIENCES, published 2026):

Experiments:
Assay in all cases: cell-based or functional assay
CDH17 [1] = target: T1, CDH17 (UniProt Q12864 23-787, limits assumed)
T1 sequence (looked up): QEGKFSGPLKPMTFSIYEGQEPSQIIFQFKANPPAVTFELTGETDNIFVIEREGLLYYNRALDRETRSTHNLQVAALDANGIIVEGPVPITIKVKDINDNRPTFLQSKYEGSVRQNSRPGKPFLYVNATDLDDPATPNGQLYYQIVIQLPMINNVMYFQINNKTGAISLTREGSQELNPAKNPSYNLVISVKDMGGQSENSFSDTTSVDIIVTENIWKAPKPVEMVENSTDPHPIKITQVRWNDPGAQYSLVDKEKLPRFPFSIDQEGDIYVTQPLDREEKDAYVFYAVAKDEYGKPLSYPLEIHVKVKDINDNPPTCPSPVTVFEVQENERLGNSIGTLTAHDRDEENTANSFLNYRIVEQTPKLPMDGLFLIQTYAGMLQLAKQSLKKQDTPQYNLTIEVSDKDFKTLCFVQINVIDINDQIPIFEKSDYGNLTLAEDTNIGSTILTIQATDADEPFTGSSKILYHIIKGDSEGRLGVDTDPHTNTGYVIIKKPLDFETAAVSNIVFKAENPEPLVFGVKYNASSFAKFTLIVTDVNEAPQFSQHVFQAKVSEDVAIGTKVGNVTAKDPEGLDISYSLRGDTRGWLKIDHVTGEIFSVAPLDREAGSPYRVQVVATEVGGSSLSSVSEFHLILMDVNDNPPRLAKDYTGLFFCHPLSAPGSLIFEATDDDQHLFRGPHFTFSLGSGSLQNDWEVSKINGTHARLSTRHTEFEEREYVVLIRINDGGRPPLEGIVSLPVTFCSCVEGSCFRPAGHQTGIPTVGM

CDH17 on SNU16 cells = target: T2, CDH17 on SNU16 cells (UniProt Q12864 23-832, limits assumed)
T2 sequence (looked up): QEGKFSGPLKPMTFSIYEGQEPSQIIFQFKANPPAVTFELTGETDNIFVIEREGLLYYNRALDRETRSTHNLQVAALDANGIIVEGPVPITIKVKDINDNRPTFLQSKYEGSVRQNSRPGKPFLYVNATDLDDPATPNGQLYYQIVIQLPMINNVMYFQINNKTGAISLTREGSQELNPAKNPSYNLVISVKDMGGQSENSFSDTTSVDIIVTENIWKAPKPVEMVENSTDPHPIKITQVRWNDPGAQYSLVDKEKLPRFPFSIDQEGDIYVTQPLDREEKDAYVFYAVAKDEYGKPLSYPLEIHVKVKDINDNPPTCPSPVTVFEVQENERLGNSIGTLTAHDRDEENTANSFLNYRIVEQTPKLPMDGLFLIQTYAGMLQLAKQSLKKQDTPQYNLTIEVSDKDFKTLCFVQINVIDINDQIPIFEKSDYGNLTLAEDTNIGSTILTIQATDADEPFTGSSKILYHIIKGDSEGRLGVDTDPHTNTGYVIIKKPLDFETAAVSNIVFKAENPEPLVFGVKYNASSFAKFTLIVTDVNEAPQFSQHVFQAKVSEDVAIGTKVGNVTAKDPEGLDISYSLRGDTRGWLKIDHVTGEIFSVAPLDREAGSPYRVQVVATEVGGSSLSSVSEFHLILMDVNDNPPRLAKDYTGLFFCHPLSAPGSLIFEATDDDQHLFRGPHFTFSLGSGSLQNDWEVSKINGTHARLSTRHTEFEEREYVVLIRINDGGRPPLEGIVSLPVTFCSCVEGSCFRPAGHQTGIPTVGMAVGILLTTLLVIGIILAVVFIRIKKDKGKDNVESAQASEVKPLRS

CDH17 [2] = target: T1, CDH17; remark: listed apart in the source

B1: BHB156-vedotin (Fc fusion)
VHH-Fc chain: QVQLQESGGGLVQPGGSTRLSCVSSRTFSYYDMGWFRQAPGKEREFVALLSWRGNNAEYSDSVMGRFTVSRGNTQNSVNLQMNNLKPEDTGIYYCAVTYGGARSVRSWGQGTQVTVSSGGGGS[here human IgG1 Fc with changes without letters]
modifications: mc-vc-PAB-MMAE (vedotin) on reduced interchain cysteines, average DAR about 4
CDH17 [1]
  cytotoxicity IC50, CXF269 (CRC) cells (ABC <LLOD): 113 nM
  cytotoxicity IC50, CXF280 (CRC) cells (ABC <LLOD): > 100 nM
  cytotoxicity IC50, CXF1103 (CRC) cells: 2 nM
  cytotoxicity IC50, GXA3011 (gastric) cells (ABC <LLOD): > 100 nM
  cytotoxicity IC50, GXA3013 (gastric) cells: 0.12 nM
  cytotoxicity IC50, GXA3023 (gastric) cells: 5.5 nM
  cytotoxicity IC50, GXA3067 (gastric) cells (ABC <LLOD): > 100 nM
  cytotoxicity IC50, GXA3080 (gastric) cells: 0.034 nM
  cytotoxicity IC50, GXF251 (gastric) cells (ABC <LLOD): > 100 nM
  cytotoxicity IC50, GXF1172 (gastric) cells (ABC <LLOD): > 100 nM
  cytotoxicity IC50 in the column 'IC50 isotype vedotin*' (asterisk per paragraph 279: BHB156-vedotin with >10-fold molar excess of free unconjugated VHH-Fc), CXF269 (CRC) cells (ABC <LLOD): 79.8 nM
  cytotoxicity IC50 in the column 'IC50 isotype vedotin*' (asterisk per paragraph 279: BHB156-vedotin with >10-fold molar excess of free unconjugated VHH-Fc), CXF280 (CRC) cells (ABC <LLOD): > 100 nM
  cytotoxicity IC50 in the column 'IC50 isotype vedotin*' (asterisk per paragraph 279: BHB156-vedotin with >10-fold molar excess of free unconjugated VHH-Fc), CXF1103 (CRC) cells: 65 nM
  cytotoxicity IC50 in the column 'IC50 isotype vedotin*' (asterisk per paragraph 279: BHB156-vedotin with >10-fold molar excess of free unconjugated VHH-Fc), GXA3011 (gastric) cells (ABC <LLOD): > 100 nM
  cytotoxicity IC50 in the column 'IC50 isotype vedotin*' (asterisk per paragraph 279: BHB156-vedotin with >10-fold molar excess of free unconjugated VHH-Fc), GXA3013 (gastric) cells: 22 nM
  cytotoxicity IC50 in the column 'IC50 isotype vedotin*' (asterisk per paragraph 279: BHB156-vedotin with >10-fold molar excess of free unconjugated VHH-Fc), GXA3023 (gastric) cells: > 100 nM
  cytotoxicity IC50 in the column 'IC50 isotype vedotin*' (asterisk per paragraph 279: BHB156-vedotin with >10-fold molar excess of free unconjugated VHH-Fc), GXA3067 (gastric) cells (ABC <LLOD): > 100 nM
  cytotoxicity IC50 in the column 'IC50 isotype vedotin*' (asterisk per paragraph 279: BHB156-vedotin with >10-fold molar excess of free unconjugated VHH-Fc), GXA3080 (gastric) cells: 3.4 nM
  cytotoxicity IC50 in the column 'IC50 isotype vedotin*' (asterisk per paragraph 279: BHB156-vedotin with >10-fold molar excess of free unconjugated VHH-Fc), GXF251 (gastric) cells (ABC <LLOD): > 100 nM
  cytotoxicity IC50 in the column 'IC50 isotype vedotin*' (asterisk per paragraph 279: BHB156-vedotin with >10-fold molar excess of free unconjugated VHH-Fc), GXF1172 (gastric) cells (ABC <LLOD): > 100 nM
CDH17 on SNU16 cells
  cytotoxicity IC50, SNU16 (gastric) cells, 96 h, CellTiter-Glo: 0.0498 nM
CDH17 [2]
  cytotoxicity IC50, AsPC1 (PDAC) cells, 96 h, CellTiter-Glo: 0.178 nM
  cytotoxicity IC50, CAPAN2 (PDAC) cells (ABC <LLOD), 96 h, CellTiter-Glo: > 100 nM
  cytotoxicity IC50, HCT15 (CRC) cells (ABC <LLOD), 96 h, CellTiter-Glo: > 100 nM
  cytotoxicity IC50, HT115 (CRC) cells (ABC <LLOD), 96 h, CellTiter-Glo: > 100 nM
  cytotoxicity IC50, IM95 (gastric) cells, 96 h, CellTiter-Glo: 0.664 nM
  cytotoxicity IC50, LoVo (CRC) cells (ABC <LLOD), 96 h, CellTiter-Glo: > 100 nM
  cytotoxicity IC50, MKN 45 (gastric) cells (ABC <LLOD), 96 h, CellTiter-Glo: > 100 nM
  cytotoxicity IC50, NCI-H508 (CRC) cells, 96 h, CellTiter-Glo: 0.0898 nM
  cytotoxicity IC50, OCUM1 (gastric) cells, 96 h, CellTiter-Glo: 0.55 nM
  cytotoxicity IC50, SW403 (CRC) cells, 96 h, CellTiter-Glo: 0.0367 nM
  cytotoxicity IC50, SW837 (CRC) cells (ABC <LLOD), 96 h, CellTiter-Glo: > 100 nM
  cytotoxicity IC50 of the negative control (asterisk: BHB156-vedotin with ≥10-fold molar excess of free unconjugated VHH-Fc), HCT15 (CRC) cells (ABC <LLOD): > 100 nM
  cytotoxicity IC50 of the negative control (asterisk: BHB156-vedotin with ≥10-fold molar excess of free unconjugated VHH-Fc), HT115 (CRC) cells (ABC <LLOD): > 100 nM
  cytotoxicity IC50 of the negative control (asterisk: BHB156-vedotin with ≥10-fold molar excess of free unconjugated VHH-Fc), IM95 (gastric) cells: 43 nM
  cytotoxicity IC50 of the negative control (asterisk: BHB156-vedotin with ≥10-fold molar excess of free unconjugated VHH-Fc), MKN 45 (gastric) cells (ABC <LLOD): > 100 nM
  cytotoxicity IC50 of the negative control (asterisk: BHB156-vedotin with ≥10-fold molar excess of free unconjugated VHH-Fc), OCUM1 (gastric) cells: 52 nM
